Data on 6 molecules can be found in PMC7757826.

Sequences of proteins named here, by UniProt entry; tags and fusion partners are left off.
UniProt P21926: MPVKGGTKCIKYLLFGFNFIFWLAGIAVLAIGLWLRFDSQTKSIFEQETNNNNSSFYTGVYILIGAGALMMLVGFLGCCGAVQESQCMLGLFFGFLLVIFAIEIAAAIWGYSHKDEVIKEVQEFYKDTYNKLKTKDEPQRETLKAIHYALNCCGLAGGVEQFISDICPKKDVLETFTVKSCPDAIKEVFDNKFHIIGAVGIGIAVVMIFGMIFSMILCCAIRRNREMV

No constants are given. Whether binding was seen depends on the method and setting. Binding seen in cells or lysates may run through a third protein. Some entries that bind do so weakly or less than the wild type.

The target in experiment [1] is T1, CD82 (Tspan-27) (human (endogenous in A2780, OVCAR-3, SKOV-3 and A2780cis cells)) (UniProt P27701).
T1 sequence: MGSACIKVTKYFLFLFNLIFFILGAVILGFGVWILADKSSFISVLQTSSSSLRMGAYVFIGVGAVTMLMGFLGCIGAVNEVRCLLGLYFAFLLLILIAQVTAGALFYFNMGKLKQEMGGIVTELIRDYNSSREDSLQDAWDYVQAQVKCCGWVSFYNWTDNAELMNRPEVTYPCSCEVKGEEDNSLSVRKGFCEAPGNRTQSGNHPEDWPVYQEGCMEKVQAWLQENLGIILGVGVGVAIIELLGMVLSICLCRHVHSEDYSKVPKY
Put plainly: co-IP; A2780 cells lysed in 1% Triton X-100 buffer; lysates precipitated with antibodies to the studied molecules, western blot.

For experiment [2], the target named is claudin-4 (human (endogenous in A2780, OVCAR-3, SKOV-3 and A2780cis cells)) (UniProt O14493). Described as above.
Experiment [3] has as its target T1, CD82 (Tspan-27) (human (endogenous in A2780, OVCAR-3, SKOV-3 and A2780cis cells)). In words: co-IP; OVCAR-3 cells lysed in 1% Triton X-100 buffer; lysates precipitated with antibodies to the studied molecules, western blot. Background: In western blotting, separated proteins are transferred to a membrane and probed.
Experiment [4] has as its target T2, claudin-7 (human (endogenous in A2780, OVCAR-3, SKOV-3 and A2780cis cells)) (UniProt O95471).
T2 sequence: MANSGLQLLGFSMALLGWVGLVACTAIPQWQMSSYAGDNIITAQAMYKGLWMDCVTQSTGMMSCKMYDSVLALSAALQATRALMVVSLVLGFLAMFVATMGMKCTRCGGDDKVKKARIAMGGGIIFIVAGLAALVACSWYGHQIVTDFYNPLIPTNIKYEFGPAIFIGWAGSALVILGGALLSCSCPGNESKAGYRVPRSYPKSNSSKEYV
In words: co-IP; A2780 cells lysed in 1% Triton X-100 buffer; lysates precipitated with antibodies to the studied molecules, western blot.

Experiment [5] has as its target T3, Epithelial cell adhesion molecule (EpCAM) (human (endogenous in A2780, OVCAR-3, SKOV-3 and A2780cis cells)) (UniProt P16422).
T3 sequence: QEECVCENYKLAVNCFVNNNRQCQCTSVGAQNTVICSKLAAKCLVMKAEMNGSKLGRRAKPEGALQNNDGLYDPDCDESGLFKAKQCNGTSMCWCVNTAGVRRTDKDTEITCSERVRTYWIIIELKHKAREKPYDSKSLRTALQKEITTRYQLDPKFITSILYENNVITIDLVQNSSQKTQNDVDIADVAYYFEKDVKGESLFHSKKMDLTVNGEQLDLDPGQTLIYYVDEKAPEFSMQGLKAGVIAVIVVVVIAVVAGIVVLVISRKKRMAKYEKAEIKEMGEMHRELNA
Put plainly: co-IP; OVCAR-3 cells lysed in 1% Triton X-100 buffer; lysates precipitated with antibodies to the studied molecules, western blot.

In experiment [6] the target is T3, Epithelial cell adhesion molecule (EpCAM) (human (endogenous in A2780, OVCAR-3, SKOV-3 and A2780cis cells)). In words: co-IP; A2780 cells lysed in 1% Triton X-100 buffer; lysates precipitated with antibodies to the studied molecules, western blot.
In experiment [7] the target is T1, CD82 (Tspan-27) (human (endogenous in A2780, OVCAR-3, SKOV-3 and A2780cis cells)). In words: co-IP; SKOV-3 cells lysed in 1% Triton X-100 buffer; lysates precipitated with antibodies to the studied molecules, western blot.
In experiment [8] the target is T3, Epithelial cell adhesion molecule (EpCAM) (human (endogenous in A2780, OVCAR-3, SKOV-3 and A2780cis cells)). The experiment is described as above.
The target of experiment [9] is T1, CD82 (Tspan-27) (human (endogenous in A2780, OVCAR-3, SKOV-3 and A2780cis cells)). In words: co-IP; tumours of SKOV-3 xenograft nude mice, homogenised in 50 mM Tris-HCl pH 8.0, 150 mM NaCl, 1% Triton X-100; immunoprecipitation and western blot.
The target of experiment [10] is T3, Epithelial cell adhesion molecule (EpCAM) (human (endogenous in A2780, OVCAR-3, SKOV-3 and A2780cis cells)). Described as above.
For experiment [11], the target named is T1, CD82 (Tspan-27) (human (endogenous in A2780, OVCAR-3, SKOV-3 and A2780cis cells)). In words: co-IP; A2780cis (cisplatin-resistant) cells lysed in 1% Triton X-100 buffer; lysates precipitated with antibodies to the studied molecules, western blot.
The target of experiment [12] is T3, Epithelial cell adhesion molecule (EpCAM) (human (endogenous in A2780, OVCAR-3, SKOV-3 and A2780cis cells)). Described as above.
Experiment [13] has as its target T4, claudin-4 (human (endogenous in A2780, OVCAR-3, SKOV-3 and A2780cis cells)), O14493.
T4 chain: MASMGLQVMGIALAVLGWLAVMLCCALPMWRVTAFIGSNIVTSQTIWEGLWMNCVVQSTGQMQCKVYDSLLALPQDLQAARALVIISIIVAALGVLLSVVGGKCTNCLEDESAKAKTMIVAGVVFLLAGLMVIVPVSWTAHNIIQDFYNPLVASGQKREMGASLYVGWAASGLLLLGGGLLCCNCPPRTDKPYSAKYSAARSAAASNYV
Put plainly: co-IP; A2780 cells lysed in 1% Triton X-100 buffer; lysates precipitated with antibodies to the studied molecules, western blot. The note with it: remark: other sources report otherwise.

For experiment [14], the target named is T4, claudin-4 (human (endogenous in A2780, …)). In words: co-IP; OVCAR-3 cells lysed in 1% Triton X-100 buffer; lysates precipitated with antibodies to the studied molecules, western blot. The following applies: remark: other sources report otherwise.
In experiment [15] the target is T5, claudin-7 (human (endogenous in A2780, OVCAR-3, SKOV-3 and A2780cis cells)), O95471.
T5 chain: T2 sequence
Put plainly: cross-linking + co-IP; A2780 cells treated first with 2-BP and then with DSP or DTSSP; anti-CD82 or anti-claudin-7 precipitates. The note with it: remark: other sources report otherwise.

Experiment [16] concerns the target T5, claudin-7 (human (endogenous in A2780, …)). Put plainly: cross-linking + co-IP; A2780 cells treated with the membrane-permeable cross-linker DSP (1 mM, 30 min, 37 °C), lysed in RIPA buffer; anti-CD82 or anti-claudin-7 precipitates. The following applies: remark: other sources report otherwise.
For experiment [17] the target is unchanged. Put plainly: cross-linking + co-IP; A2780 cells treated with the membrane-impermeable cross-linker DTSSP (1 mM, 30 min, 37 °C), lysed in RIPA buffer; anti-CD82 or anti-claudin-7 precipitates. The following applies: remark: other sources report otherwise.
The target is the same in experiment [18]. In words: cross-linking + co-IP; OVCAR-3 cells treated with DSP or DTSSP (1 mM, 30 min, 37 °C), with or without 2-BP beforehand, lysed in RIPA buffer; anti-CD82 or anti-claudin-7 precipitates. The following applies: remark: other sources report otherwise.
The target is the same in experiment [19]. Put plainly: cross-linking + co-IP; SKOV-3 cells treated with DSP or DTSSP (1 mM, 30 min, 37 °C), claudin-7 precipitates also after 2-BP beforehand, lysed in RIPA buffer; anti-CD82 or anti-claudin-7 precipitates. The note with it: remark: other sources report otherwise.

As for “CD9 (Tetraspanin-29) (from UniProt P21926 1-228)”, the binding entry in experiment [1], in experiment [2] and in experiment [3] was “binds” each time.
Consider claudin-3 (from UniProt O15551 1-220), for which the binding result in experiment [1] is given as “binds”; in [4], “binds weakly”; in [3], “binds”; in experiment [5] it was “binds”.

B1: claudin-7 (protein, UniProt O95471 1-211)
chain: T2 sequence
As for B1, the binding entry is “binds” in [1]; “binds weakly” in [6]; “binds” in experiment [7]; “binds” in experiment [8]; “binds” in experiment [3]; “binds” in [5]. In addition, the binding entry in [9], in experiment [10], in experiment [11] and in experiment [12] was “binds” each time.

B2: claudin-3, O15551 1-220 (protein)
chain: MSMGLEITGTALAVLGWLGTIVCCALPMWRVSAFIGSNIITSQNIWEGLWMNCVVQSTGQMQCKVYDSLLALPQDLQAARALIVVAILLAAFGLLVALVGAQCTNCVQDDTAKAKITIVAGVLFLLAALLTLVPVSWSANTIIRDFYNPVVPEAQKREMGAGLYVGWAAAALQLLGGALLCCSCPPREKKYTATKVVYSAPRSTGPGASLGTGYDRKDYV
Take B2: the binding entry in experiment [13] and in [14] was “binds” throughout.

B3: CD82 (Tspan-27) (protein, UniProt P27701 1-267)
chain: T1 sequence
Consider B3, for which the binding result in experiment [4] is reported as “binds weakly”; in experiment [5], “binds”.

B4: claudin-4, O14493 1-209 (protein)
chain: T4 chain
Regarding B4, the binding result in experiment [13], in experiment [15], in experiment [16], in [17], in experiment [18] and in experiment [19] was “binds” each time.
